The text below walks through data of article PMC3065485.

No constants are given. Whether binding was seen depends on the method and setting. In cells and extracts the contact can be indirect. Some results given as binding are weak or reduced against the parent protein; the word gives no strength. Where a sequence is shown, tags or fusion partners need not be part of it.

Common to all, as to assay: co-IP; α-Myc immunoprecipitation of the Myc-tagged Ccr4-Not subunit from 1 mg yeast whole-cell extract (10 mM Tris pH 8.0, 150 mM NaCl, 0.1% Nonidet P-40, 10% glycerol, 1 mM DTT), 4°C, Protein A agarose; α-HA immunoblot for Hmt1
Background: In western blotting, separated proteins are transferred to a membrane and probed.

Assay [1] addresses T1, Caf1-Myc (S. cerevisiae) (UniProt P39008).
T1 sequence: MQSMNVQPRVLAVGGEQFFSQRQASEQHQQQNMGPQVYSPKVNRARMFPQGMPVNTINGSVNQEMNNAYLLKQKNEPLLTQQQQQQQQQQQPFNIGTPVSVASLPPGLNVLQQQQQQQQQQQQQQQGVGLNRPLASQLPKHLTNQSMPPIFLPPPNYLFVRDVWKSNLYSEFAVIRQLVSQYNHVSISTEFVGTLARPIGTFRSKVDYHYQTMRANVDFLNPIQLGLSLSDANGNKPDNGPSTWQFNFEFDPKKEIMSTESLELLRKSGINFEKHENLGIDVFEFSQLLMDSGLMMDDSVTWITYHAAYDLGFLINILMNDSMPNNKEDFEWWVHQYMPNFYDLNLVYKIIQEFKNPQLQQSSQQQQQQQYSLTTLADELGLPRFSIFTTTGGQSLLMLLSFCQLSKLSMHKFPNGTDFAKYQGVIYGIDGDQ

In assay [2] the target is T2, Ccr4-Myc (S. cerevisiae) (UniProt P31384).
T2 sequence: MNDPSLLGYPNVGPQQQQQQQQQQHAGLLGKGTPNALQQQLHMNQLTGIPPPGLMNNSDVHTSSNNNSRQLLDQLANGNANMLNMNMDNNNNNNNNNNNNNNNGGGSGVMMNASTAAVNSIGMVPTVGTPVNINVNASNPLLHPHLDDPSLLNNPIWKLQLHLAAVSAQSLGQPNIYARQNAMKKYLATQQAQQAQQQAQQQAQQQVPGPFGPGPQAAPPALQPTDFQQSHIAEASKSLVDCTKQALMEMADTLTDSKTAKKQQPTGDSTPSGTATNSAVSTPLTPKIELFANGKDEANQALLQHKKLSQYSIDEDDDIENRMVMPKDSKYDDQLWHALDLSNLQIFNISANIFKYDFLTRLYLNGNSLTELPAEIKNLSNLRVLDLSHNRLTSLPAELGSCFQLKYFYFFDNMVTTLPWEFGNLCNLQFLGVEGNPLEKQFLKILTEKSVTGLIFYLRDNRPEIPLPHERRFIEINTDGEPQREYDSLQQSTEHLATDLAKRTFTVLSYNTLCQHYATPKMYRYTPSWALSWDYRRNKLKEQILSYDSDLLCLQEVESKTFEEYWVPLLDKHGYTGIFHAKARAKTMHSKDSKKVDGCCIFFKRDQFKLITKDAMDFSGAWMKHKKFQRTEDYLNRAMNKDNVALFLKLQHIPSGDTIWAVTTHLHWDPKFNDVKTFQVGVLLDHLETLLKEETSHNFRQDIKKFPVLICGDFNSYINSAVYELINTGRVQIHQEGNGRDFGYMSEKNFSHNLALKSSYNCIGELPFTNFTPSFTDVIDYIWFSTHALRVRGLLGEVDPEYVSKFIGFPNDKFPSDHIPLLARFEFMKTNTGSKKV

In assay [3] the target is T3, Not5-Myc (S. cerevisiae) (UniProt Q12514).
T3 sequence: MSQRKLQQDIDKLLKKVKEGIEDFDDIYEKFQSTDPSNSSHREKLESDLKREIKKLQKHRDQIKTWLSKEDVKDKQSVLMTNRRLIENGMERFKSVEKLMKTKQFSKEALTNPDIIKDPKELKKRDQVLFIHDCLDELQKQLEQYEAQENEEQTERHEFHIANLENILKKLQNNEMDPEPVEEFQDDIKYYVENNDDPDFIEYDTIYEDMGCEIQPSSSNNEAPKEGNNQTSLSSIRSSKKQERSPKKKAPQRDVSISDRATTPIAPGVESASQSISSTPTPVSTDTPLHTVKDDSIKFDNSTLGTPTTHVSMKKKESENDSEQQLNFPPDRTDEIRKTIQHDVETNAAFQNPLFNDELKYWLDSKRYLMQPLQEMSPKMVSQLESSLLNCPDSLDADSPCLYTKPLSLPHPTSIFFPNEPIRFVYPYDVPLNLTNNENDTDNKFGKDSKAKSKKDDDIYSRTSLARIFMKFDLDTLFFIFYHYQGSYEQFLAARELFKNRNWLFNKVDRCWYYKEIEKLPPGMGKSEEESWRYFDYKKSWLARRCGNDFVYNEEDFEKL

The target in assay [4] is T4, Not2-Myc (S. cerevisiae) (UniProt P06100).
T4 sequence: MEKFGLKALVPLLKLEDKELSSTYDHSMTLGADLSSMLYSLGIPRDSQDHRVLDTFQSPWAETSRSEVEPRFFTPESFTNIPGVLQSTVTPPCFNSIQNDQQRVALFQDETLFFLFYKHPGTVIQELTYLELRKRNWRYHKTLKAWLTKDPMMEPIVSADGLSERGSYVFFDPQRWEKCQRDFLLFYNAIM

B1: Hmt1-HA (enzyme, UniProt P38074 1-348)
chain: MSKTAVKDSATEKTKLSESEQHYFNSYDHYGIHEEMLQDTVRTLSYRNAIIQNKDLFKDKIVLDVGCGTGILSMFAAKHGAKHVIGVDMSSIIEMAKELVELNGFSDKITLLRGKLEDVHLPFPKVDIIISEWMGYFLLYESMMDTVLYARDHYLVEGGLIFPDKCSIHLAGLEDSQYKDEKLNYWQDVYGFDYSPFVPLVLHEPIVDTVERNNVNTTSDKLIEFDLNTVKISDLAFKSNFKLTAKRQDMINGIVTWFDIVFPAPKGKRPVEFSTGPHAPYTHWKQTIFYFPDDLDAETGDTIEGELVCSPNEKNNRDLNIKISYKFESNGIDGNSRSRKNEGSYLMH
Turning to B1, the binding result is listed as “binds” in assay [1], “binds” in assay [2], “no binding” in assay [3] and “binds weakly” in assay [4].
